Experimental data published in PubChem BioAssay (NCATS).
Inconclusive means that the source gave no clear call. Such entries were picked first, then a sample of the others. For part of these data: Potencies of inconclusive entries are doubtful fits and often do not repeat. Activity calls are given as the source filed them. Unless noted, calls come from the whole dose curve; as a rule, active = well fitted curve in the direction sought with a large enough effect; inconclusive = small, poorly fitted or top-dose-only effect, or another doubt; inactive = no such curve, though single readings can be large; an effect the other way counts as inactive or inconclusive.

Assays:
[1] = qHTS of pediatric cancer cell lines to identify multiple opportunities for drug repurposing: Primary screen for Saos-2 cells (AID 1347097); conditions: Saos-2 viability, CellTiter-Glo ATP luminescence, 48 h; activity change, negative = cytotoxic: at 46 µM (top of the series); note: nearly all actives have a fitted effect of over 40% in size; note: potency is the fitted concentration of half-maximal effect; for activity change, negative = cytotoxic: % is set by controls: 0 for no effect and ±100 for the full control effect
Outline: (§1)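 Luminescence from CellTiter-Glo served as readout of metabolically active cells after 48 h compound exposure. Titrations: MIPE 11-point, from 0.78 nM; NPC 8-point, from 0.59 nM (final). Concentration-response curves came straight from the primary screen.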

[2] = qHTS of pediatric cancer cell lines to identify multiple opportunities for drug repurposing: Primary screen for SK-N-SH cells (AID 1347098); note: potency is the fitted concentration of half-maximal effect; nearly all actives have a fitted effect of over 65% in size
Outline: (§2)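 Cells (500-1,000/well) rested 5 h, then received compounds for 48 h; metabolically active cells were measured by CellTiter-Glo luminescence. Final concentrations spanned up to 46 µM (MIPE, 11-point) or 0.59 nM-46 µM (NPC, 8-point) in primary screens, 11-point in follow-ups.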

[3] = Primary qHTS for small molecule stabilizers of the endoplasmic reticulum resident proteome: Secreted ER Calcium Modulated Protein (SERCaMP) assay (AID 1508630); conditions: SH-SY5Y GLuc-SERCaMP (Gaussia luciferase released on ER calcium loss) secretion, thapsigargin, luminescence; activity change, negative = inhibition: at 38.4 µM (top of the series) unless noted; note: potency is the fitted concentration of half-maximal effect; for activity change, negative = inhibition: % is set by controls: 0 for no effect and ±100 for the full control effect
Outline: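 The SH-SY5Y reporter protocol was run at 3 concentrations up to 38.3 uM (primary) or 11 concentrations (follow-up): 16 h compound, 100 nM thapsigargin for 4 h, then extracellular luciferase luminescence.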

MKL-1 = assay: qHTS assay to identify novel small-molecules to repurpose for Merkel cell carcinoma treatment (AID 1296009); conditions: MCC and control cell lines, CellTiter-Glo viability, 72 h; series mostly up to 46 µM; note: % is set by controls: 0 for no effect and ±100 for the full control effect; nearly all actives have a fitted effect of over 60% in size
Outline: (§3)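 Viability readout: ATP luminescence (CellTiter-Glo) after 72 hr drug exposure at 37 degree celsius. Dose-response format was 8 points for NPC and 11 points for MIPE; data normalized to in-plate controls.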

SKOV3 = assay: Primary qHTS to identify gynecologic anti-cancer compounds using libraries of approved drugs and bioactive compounds (AID 1345084); conditions: Gynecologic cancer cell panel viability, ATPlite luminescence, 48 h; series mostly up to 57.5 µM; note: nearly all actives have a fitted effect of over 55% in size; note: potency is the fitted concentration of half-maximal effect; for activity change, negative = cytotoxicity: % is set by controls: 0 for no effect and ±100 for the full control effect
Outline: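 48 h compound exposure at 37 C, 5% CO2; five-point qHTS. ATPlite luminescence readout of cell ATP.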

[4] = Drug repurposing screens with cells derived from glioblastoma tumor samples (AID 1345199); conditions: GBM patient neurospheres viability, ATP luminescence, 48 h; Potency: tumour line A unless noted; activity, negative = cell killing: at 46 µM (top of the series), tumour line A unless noted; note: nearly all actives have a fitted effect of over 40% in size; note: potency is the fitted concentration of half-maximal effect; for activity, negative = cell killing: % is set by controls: 0 for no effect and ±100 for the full control effect
Outline: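 Primary testing used CD133+ neurospheres from four GBM patients, seven concentrations, 48 h exposure and ATP-based viability; confirmation added three slower-growing patient lines.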

[5] = qHTS of pediatric cancer cell lines to identify multiple opportunities for drug repurposing: Primary screen for NB-EBc1 cells (AID 1347095);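 note: plate controls were DMSO neutral control for no effect and bortezomib for full effect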
Outline: as §1

[6] = A High-Content qHTS Against Drug Library for the Identification of Small Molecules that Inhibit DYT1 Early Onset Primary Dystonia-Associated Cell Pathology (AID 1645839; calls by dose curve)
Outline: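 Induced EGFP-delE TorsinA cells are imaged after 48 h of compound treatment. Punctate fusion-protein distribution gives the %pathology value, while nuclei counts flag toxicity. Wild-type EGFP-hTOR1A cells define the normal pattern.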

[7] = Primary qHTS for inhibitors of nuclear receptor binding SET domain protein 2 (NSD2) in an RCH-ACV wild type WT cells (2C) (AID 1645877); conditions: activity change, negative = cell killing: at 44.9 µM (top of the series) unless noted; note: potency is the fitted concentration of half-maximal effect; nearly all actives have a fitted effect of over 70% in size
MKL-2 = assay: qHTS assay to identify novel small-molecules to repurpose for Merkel cell carcinoma treatment (AID 1296009); conditions: MCC and control cell lines, CellTiter-Glo viability, 72 h; activity change, negative = cytotoxicity: at 46 µM (top of the series); note: % is set by controls: 0 for no effect and ±100 for the full control effect; nearly all actives have a fitted effect of over 60% in size
Outline: as §3

WaGa = assay: as above; conditions: MCC and control cell lines, CellTiter-Glo viability, 72 h; series mostly up to 46 µM
Outline: as §3

[8] = Primary qHTS for inhibitors of nuclear receptor binding SET domain protein 2 (NSD2) in an isogenic RCH-ACV NSD2 p.E1099K mutant (9B) (AID 1645876); conditions: activity change, negative = viability loss: at 44.9 µM (top of the series) unless noted; note: nearly all actives have a fitted effect of over 70% in size; note: potency is the fitted concentration of half-maximal effect
[9] = qHTS of pediatric cancer cell lines to identify multiple opportunities for drug repurposing: Primary screen for SK-N-MC cells (AID 1347093); conditions: SK-N-MC viability, CellTiter-Glo luminescence, 48 h; activity change, negative = cytotoxic: at 46 µM (top of the series); note: potency is the fitted concentration of half-maximal effect;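 for activity change, negative = cytotoxic: plate controls were DMSO neutral control for no effect and bortezomib for full effect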
Outline: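 Metabolically active cells were quantified by ATP-dependent luminescence (CellTiter-Glo, 15 min at room temperature) following 48 h treatment. Cells had been plated at 500-1,000 per well and settled for 5 h beforehand.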

[10] = qHTS of pediatric cancer cell lines to identify multiple opportunities for drug repurposing: Primary screen for BT-12 cells (AID 1347101); note: nearly all actives have a fitted effect of over 25% in size; note: potency is the fitted concentration of half-maximal effect;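 for activity change, negative = cytotoxic: plate controls were DMSO for no effect and bortezomib positive control for full effect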
Outline: as §2

[11] = qHTS of pediatric cancer cell lines to identify multiple opportunities for drug repurposing: Primary screen for OHS-50 cells (AID 1347103); conditions: OHS-50 osteosarcoma viability, CellTiter-Glo luminescence, 48 h; activity change, negative = cytotoxic: at 57.3 µM (top of the series); note: nearly all actives have a fitted effect of over 40% in size; note: potency is the fitted concentration of half-maximal effect;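 for activity change, negative = cytotoxic: plate controls were DMSO neutral control for no effect and bortezomib positive control for full effect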
Outline: as §2

[12] = qHTS of pediatric cancer cell lines to identify multiple opportunities for drug repurposing: Primary screen for A673 cells (AID 1347092); conditions: A673 Ewing sarcoma viability, CellTiter-Glo ATP luminescence, 48 h; activity change, negative = cytotoxic: at 46 µM (top of the series); note: % is set by controls: 0 for no effect and ±100 for the full control effect; nearly all actives have a fitted effect of over 45% in size
Outline: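 A673 cells (500-1,000 cells/well in growth media) were pre-incubated 5 h at 37 degrees C, then exposed to compounds for 48 h. Viability was read as CellTiter-Glo luminescence; concentration-response curves came directly from the primary screen.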

[13] = target: Cytochrome P450 2C9 (Homo sapiens) (UniProt P11712); assay: Cytochrome P450 family 2 subfamily C member 9 (CYP2C9) small molecule antagonists: luciferase biochemical (cell-free) qHTS assay (AID 1645842; active = well fitted curve in the direction sought with a large enough effect in the repeat runs; inconclusive = weak or mixed curves; inactive = no such curve, though single readings can be large; an effect the other way counts as inactive or inconclusive; note: % is set by controls: 0 for no effect and ±100 for the full control effect; nearly all actives have a fitted effect of over 55% in size)
Outline: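 P450-Glo CYP2C9 system: proluciferin substrate with enzyme in mix containing 0.4% BSA, 10 min at room temperature, then NADPH regeneration solution added and incubated 1 h at 37C. Detection reagent stopped reaction; luminescence read after 20 min as RLU.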

[14] = target: Cytochrome P450 2D6 (Homo sapiens) (UniProt P10635); assay: Cytochrome P450 family 2 subfamily D member 6 (CYP2D6) small molecule antagonists: luciferase biochemical (cell-free) qHTS assay (AID 1645840; active = well fitted curve in the direction sought with a large enough effect in the repeat runs; inconclusive = weak or mixed curves; inactive = no such curve, though single readings can be large; an effect the other way counts as inactive or inconclusive; note: nearly all actives have a fitted effect of over 55% in size; note: potency is the fitted concentration of half-maximal effect)
Outline: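 P450-Glo CYP2D6 system: proluciferin substrate converted by enzyme to luciferin, read by luminescence proportional to activity. Enzyme-substrate mix with compound 10 min at room temperature, then NADPH regeneration 1 h before detection reagent.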
Tags give direction and shape of the fitted curve.

Chain of UniProt P10635 (P10635 whole entry, looked up): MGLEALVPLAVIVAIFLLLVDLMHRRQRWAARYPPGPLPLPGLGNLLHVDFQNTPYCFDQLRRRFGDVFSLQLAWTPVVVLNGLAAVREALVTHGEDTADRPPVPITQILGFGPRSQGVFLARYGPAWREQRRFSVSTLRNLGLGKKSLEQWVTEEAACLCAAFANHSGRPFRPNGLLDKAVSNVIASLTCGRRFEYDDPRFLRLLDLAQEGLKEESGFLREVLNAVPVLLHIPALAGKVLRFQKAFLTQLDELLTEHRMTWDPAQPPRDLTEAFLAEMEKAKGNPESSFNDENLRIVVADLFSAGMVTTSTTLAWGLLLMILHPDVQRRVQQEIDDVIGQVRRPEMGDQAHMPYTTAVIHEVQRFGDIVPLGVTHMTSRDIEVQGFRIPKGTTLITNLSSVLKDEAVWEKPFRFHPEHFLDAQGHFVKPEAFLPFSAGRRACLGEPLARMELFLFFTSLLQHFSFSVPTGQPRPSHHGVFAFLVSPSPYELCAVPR
Chain of UniProt P11712 (P11712 whole entry, looked up): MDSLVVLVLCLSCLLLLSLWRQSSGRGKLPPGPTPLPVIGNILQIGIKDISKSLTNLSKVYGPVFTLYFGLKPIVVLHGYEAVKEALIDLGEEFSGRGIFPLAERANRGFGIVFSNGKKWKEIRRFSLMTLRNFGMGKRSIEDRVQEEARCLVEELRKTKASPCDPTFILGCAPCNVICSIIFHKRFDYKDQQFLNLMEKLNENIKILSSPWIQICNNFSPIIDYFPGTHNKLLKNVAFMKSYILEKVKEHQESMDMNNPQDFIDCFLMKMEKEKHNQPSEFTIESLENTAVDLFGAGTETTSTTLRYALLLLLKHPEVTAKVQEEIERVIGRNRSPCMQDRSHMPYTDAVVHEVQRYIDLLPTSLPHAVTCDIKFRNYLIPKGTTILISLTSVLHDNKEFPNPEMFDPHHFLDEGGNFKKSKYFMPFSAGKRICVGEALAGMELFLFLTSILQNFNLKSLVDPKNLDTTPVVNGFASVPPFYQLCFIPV

Cc1cc(-n2nc3ccc(Cl)cc3n2)c(O)c(C(C)(C)C)c1
inconclusive: Potency [2] 0.97 µM [cytotoxic, full curve, poor fit] | Potency [3] 31.6 µM [inhibitor, partial curve, poor fit]
inactive: Potency [1] | Potency (MKL-1) | Potency (SKOV3)
active: Potency [4] 7.94 µM

O=C(NCC(O)CO)c1c(I)c(C(=O)NCC(O)CO)c(I)c(N(CCO)C(=O)CO)c1I (stereo unspecified)
inactive: Potency [5] | Potency [3] | Potency [6] | Potency (MKL-1) | Potency (SKOV3)
inconclusive: Potency [1] 29.9 µM [cytotoxic, single point] | Potency [7] 29.9 µM [inhibitor, single point]

NC(=O)NC1NC(=O)NC1=O (stereo unspecified)
inconclusive: activity change, negative = inhibition [3] -32% [inhibitor]
inactive: Potency [1] | Potency (MKL-2) | Potency (WaGa) | Potency (SKOV3)

O=C(O)CNC(=O)c1ccccc1I
inconclusive: Potency [8] 21.1 µM [inhibitor, single point] | Potency [7] 26.6 µM [inhibitor, single point] | Potency (SKOV3) 0.794 µM [rising, full curve, poor fit]
inactive: Potency (MKL-1) | Potency [4]

c1ccc2c(CC3=NCCN3)cccc2c1
inconclusive: Potency [9] 3.35 µM [cytotoxic, partial curve] | Potency [1] 18.8 µM [cytotoxic, partial curve] | Potency [10] 6.92 µM [cytotoxic, single point] | Potency [11] 1.55 µM [cytotoxic, partial curve, poor fit] | Potency [7] 21.1 µM [inhibitor, partial curve, poor fit] | Potency [4] 22.4 µM [inhibitor, partial curve]
inactive: Potency [5] | Potency (MKL-2) | Potency (WaGa)

COc1ccc(CCC(=O)c2c(O)cc(O[C@@H]3O[C@H](CO)[C@@H](O)[C@H](O)[C@@H]3O[C@@H]3O[C@@H](C)[C@H](O)[C@@H](O)[C@@H]3O)cc2O)cc1O
inactive: Potency [5] | Potency (MKL-1)

COc1ccc2c(c1)CCCC2=O
inconclusive: Potency (SKOV3) 3.55 µM [rising, partial curve, poor fit]
inactive: Potency [9] | Potency [8] | Potency (MKL-1)

C1N2CN3CN1CN(C2)C3
inconclusive: Potency [2] 4.33 µM [cytotoxic, single point] | Potency [3] 31.6 µM [inhibitor, partial curve, poor fit] | Potency [8] 23.7 µM [inhibitor, single point] | Potency [7] 33.5 µM [inhibitor, single point]
inactive: Potency [12] | Potency [9] | Potency [10] | Potency [6] | Potency [13] | Potency (MKL-2)

N[C@@H](Cc1cc(I)c(O)c(I)c1)C(=O)O
inactive: Potency (MKL-2)
inconclusive: Potency [9] 18.8 µM [cytotoxic, partial curve, poor fit] | Potency [3] 10 µM [inhibitor, full curve] | Potency [14] 21.9 µM [inhibitor, partial curve, poor fit]

COC(=O)c1cc(S(N)(=O)=O)ccc1OC
inactive: Potency [12] | Potency [9] | Potency [5] | Potency [10] | Potency [14] | Potency [8] | Potency (MKL-2)
inconclusive: Potency [3] 8.91 µM [inhibitor, partial curve, poor fit]

Cc1cccc(C)c1NC(=O)c1cc(S(N)(=O)=O)c(Cl)cc1O
inactive: Potency [11] | Potency [3] | Potency [14] | Potency [8] | Potency (MKL-2)

O=C1O[C@H](CO)[C@@H](O)[C@H](O)[C@H]1O
inactive: Potency (MKL-2)
